Whole data set: some 33,000 sequences, median “E-score (-0.5 to 0.5)” near -0.035, cut for the highest 2% near 0.35. This is one part of the list.
Molecular target: T1, Pdr3 (UniProt P33200)
T1 sequence: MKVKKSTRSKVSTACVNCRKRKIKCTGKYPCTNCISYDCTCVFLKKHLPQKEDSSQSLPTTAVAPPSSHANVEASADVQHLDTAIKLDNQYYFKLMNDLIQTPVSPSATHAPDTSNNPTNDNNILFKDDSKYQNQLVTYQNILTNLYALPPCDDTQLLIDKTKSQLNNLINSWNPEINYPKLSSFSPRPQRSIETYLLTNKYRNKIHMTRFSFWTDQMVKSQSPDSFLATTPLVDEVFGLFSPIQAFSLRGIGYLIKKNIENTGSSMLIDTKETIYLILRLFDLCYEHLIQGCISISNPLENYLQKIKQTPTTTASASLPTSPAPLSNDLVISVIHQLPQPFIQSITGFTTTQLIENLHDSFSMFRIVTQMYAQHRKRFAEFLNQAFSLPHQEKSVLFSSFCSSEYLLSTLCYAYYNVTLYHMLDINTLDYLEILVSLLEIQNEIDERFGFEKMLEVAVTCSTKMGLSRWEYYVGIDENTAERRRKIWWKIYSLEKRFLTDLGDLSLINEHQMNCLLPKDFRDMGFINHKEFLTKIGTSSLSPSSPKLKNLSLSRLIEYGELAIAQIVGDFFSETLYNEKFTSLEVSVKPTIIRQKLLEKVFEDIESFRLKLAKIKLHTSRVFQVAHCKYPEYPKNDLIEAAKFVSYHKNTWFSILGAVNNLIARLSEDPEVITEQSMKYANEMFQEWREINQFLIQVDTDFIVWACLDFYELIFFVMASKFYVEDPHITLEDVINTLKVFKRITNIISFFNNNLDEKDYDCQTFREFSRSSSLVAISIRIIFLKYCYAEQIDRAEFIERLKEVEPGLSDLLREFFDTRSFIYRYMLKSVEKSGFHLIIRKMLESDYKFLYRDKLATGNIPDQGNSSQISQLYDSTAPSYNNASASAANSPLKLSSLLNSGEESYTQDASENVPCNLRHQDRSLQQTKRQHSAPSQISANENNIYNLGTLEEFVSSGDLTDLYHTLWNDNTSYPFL
Experiment: PBM E-score (8-mer binding enrichment) (E-score (-0.5 to 0.5)); higher = stronger / more preferred TF binding; most listed sequences are background and not binding sites
Conditions: protein concentration: 200 nM; construct: GST-full length
Experimental: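 Universal 'all 10-mer' protein binding microarrays (Agilent AMADID 015681) probed with GST-tagged S. cerevisiae TFs (full-length or DBD) made by in vitro transcription/translation (PURExpress), about 100-200 nM. Bound TF was detected with fluorescent anti-GST. Each ungapped 8-mer (which stands for itself and its reverse complement) is scored by the PBM enrichment score (E-score), a modified Wilcoxon-Mann-Whitney statistic from -0.5 to +0.5, computed with the Universal PBM Analysis Suite. Scale: above 0.35 generally sequence-specific binding.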

Sequence | PBM E-score
GATCCACC | -0.0343
AACGTGGT | -0.232
GGCTGGTA | -0.0333
CCATCGGG | 0.192
AGGTGCAG | -0.084
AGTTGTGC | -0.0268
CCGATTCC | 0.395
AGTCTATG | -0.397
ATCAAGCA | -0.0231
TATGACGA | -0.0199
CTGCGGTC | 0.0312
CCAGTATA | -0.00344
CCTTAAAA | -0.354
ATCCATAG | -0.00615
GAAAGCCC | 0.201
ATGAAGAA | -0.0658
GCTCATAC | -0.138
AAAAGACG | 0.0113
ACAAGTTA | 0.119
ACGTCTGC | -0.203
GAGTCGGA | 0.234
GGTGCAAC | 0.0956
AGGACGCG | -0.0115
CACGACCG | -0.0793
AGCTCGCG | 0.142

Sequence | PBM E-score
ACGCCGAG | 0.171
CGGTTCGA | 0.198
AGAGCCGG | 0.212
TAAGGAAA | -0.0801
ATTGTTAC | 0.00902
CAGTAGAG | -0.172
CTGGCAAG | -0.099
AGCTTATG | -0.129
ATTATCTC | 0.145
CAATCTCC | 0.0806
AACCCGAC | 0.185
AAGTGACT | -0.241
CCTGGTGA | -0.0715
ACAGCAGT | 0.0268
CGAAGCGA | -0.0242
AAACTCAA | 0.0182
ATGTTTCC | 0.31
CGTGGGTC | 0.0139
AGAGGGAC | -0.106
GCCAGAGC | -0.147
AGCCCAAA | 0.0809
GGCGCAAA | 0.123
CCCGCCAA | 0.192
CGGGCGGC | 0.291
CTAGATTC | -0.0783

Sequence | PBM E-score
CTAACTCA | -0.239
ATCGAACA | -0.0304
CGGATGGC | 0.256
ACATTTTA | -0.0788
GCGTTCGA | -0.118
GCGCGGAC | 0.305
GTAATTTA | -0.0395
CCCTGGTC | -0.0525
CCCAATGC | -0.194
ACCTGAAT | 0.0497
ACCAAAGG | -0.186
CGTTTTAA | -0.0191
AGACGGAA | 0.422
ACGAATTA | -0.148
TCCCTAAA | -0.142
GAGTATAA | 0.0207
AAAGTGAA | 0.057
ATTCGGGC | 0.0757
CTACTCAC | -0.0222
ACTCCACA | -0.0854
AACGGTTG | -0.108
AGGGGTCG | -0.27
CTGCTGAA | -0.15
CTGTCGTC | -0.149
GACCAGCC | 0.114

Sequence | PBM E-score
AGCAGCAC | -0.129
TACAACTA | -0.025
ATGAAACA | -0.111
CCGTGCAA | 0.115
AGAGTAAG | -0.0626
GGATGACC | 3e-05
AACACTAT | 0.148
AGTGTCAC | 0.0357
GCTTTATA | -0.0639
GCAATAAC | 0.0544
GACCGACA | -0.0173
ATAGTATA | 0.131
AATAGGAC | -0.0505
AATCGTAC | 0.0749
CAGTCAGC | -0.113
CTTCAAAA | -0.0259
AAAATGGA | 0.152
ACTCAATA | -0.0454
GAATCGAA | 0.0265
CATGTACG | 0.00428
ACGTGACA | -0.203
ACTGGACA | 0.0362
ACTACTCT | -0.0836
GACCGAGC | 0.0956
ACACCGAA | 0.108

Sequence | PBM E-score
AGCGTCTA | -0.18
GTCCGTCA | 0.213
AGAAACCT | 0.0541
CAGCGTTC | -0.0264
AATGTATA | 0.0929
GCATGGAA | 0.0983
CCGGTAGC | 0.197
CTCAGTTA | -0.0937
CGAAGAAC | 0.119
AATTAGTA | 0.0198
AGTCTCTA | -0.297
GTGCGAGA | -0.157
CGGTCGAG | -0.014
CTCTCTCC | 0.0299
TGATGAAA | -0.1
GCAGGAAA | -0.081
ACACCTCG | 0.0245
GAGGACGA | 0.022
ATTGCACG | 0.0604
CTCCCTGC | -0.246
ATAAGCAA | -0.128
TGAGTACA | -0.108
AAGGCACT | -0.138
TGAGACAA | -0.0208
ATGCGGTG | -0.146

Sequence | PBM E-score
GAACCATA | 0.148
CCTTGAAA | -0.159
CTCATTAA | -0.0153
TCATTGGA | -0.11
CCCTATGA | -0.112
CCATTGCG | 0.185
GGGGCCAC | 0.00432
GCCGGCAC | 0.392
GGATGCAC | 0.101
AGTTGGTC | -0.0107
ATTCGAAA | 0.055
CAAGGAGA | -0.142
AAAACGAT | -0.222
CCGAACCG | 0.265
AGCGACAT | -0.0907
ATTATACA | -0.093
ACGCTCGG | 0.226
AACGCCCT | -0.206
CGGAGGAG | 0.162
CAACAGCG | -0.0749
CAAATCGC | -0.118
GAGGGACC | -0.232
CTTAAGTC | -0.0654
ATCTAAGA | -0.15
ACGTAACA | -0.204

Sequence | PBM E-score
GGACCGAA | 0.193
AAGGGAAC | -0.121
ACGGCCGT | 0.335
ATGTGTGC | -0.089
CTTGCGGA | 0.137
TAGTGCAA | -0.0608
CATAACGA | -0.0654
CGCAATAA | 0.152
ACATATAA | -0.0276
GTTAGCCA | -0.137
AACTACGT | -0.167
ATTACAGG | 0.0866
ATGACAGA | -0.189
AACAACAG | -0.166
CAAGGACA | -0.086
GGGCACTA | -0.222
ACTATAAA | 0.0095
ATATCTTG | -0.142
AATCGACG | 0.058
AATCTCGT | -0.0671
CCTCACAA | 0.0036
TAAAAATA | -0.0546

Source: the supplement of paper PMC3334620
